Test results as given in PubChem BioAssay AID504332 (National Center for Advancing Translational Sciences (NCATS), 2011).
Several values for one entry are separate records, joined by “and”; a condition that tells them apart may be missing. Equal entries are not always repeated. About 31,000 (8.9%) of roughly 350,000 compounds were called active. The shares of active, inactive and inconclusive entries below differ from those in the screen. Calls follow the shape of the dose curve; as a rule, active = well fitted inhibition curve with a large enough effect; inconclusive = small, poorly fitted or top-dose-only effect; inactive = no such curve, though single readings can be large or run the other way. Potencies of inconclusive entries are doubtful fits and often do not repeat. Where a structure was tested more than once in an assay, its records may differ in their call.

biological target: Histone-lysine N-methyltransferase EHMT2 (Homo sapiens) (UniProt Q96KQ7); experiment: qHTS Assay for Inhibitors of Histone Lysine Methyltransferase G9a; details: G9a H3K9 monomethylation, AlphaScreen, 2 h; activity, negative = inhibition: at 59 µM (top of the series) unless noted; also: nearly all actives have a fitted effect of over 75% in size
Summary of the method: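 G9a (20 nM) was preincubated 15 min with compound, then reacted 2 h at room temperature with 500 nM biotin-H3K9 peptide and 20 µM SAM. Monomethyl-H3K9 detected by AlphaScreen using anti-H3K9me1 antibody.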
% is scaled to controls: 0 for no effect and ±100 for the full control effect; potency is read from the fitted curve at half-maximal effect; tags tell the direction and shape of the fitted curve.

Sequence of UniProt Q96KQ7 (Q96KQ7 whole entry, looked up): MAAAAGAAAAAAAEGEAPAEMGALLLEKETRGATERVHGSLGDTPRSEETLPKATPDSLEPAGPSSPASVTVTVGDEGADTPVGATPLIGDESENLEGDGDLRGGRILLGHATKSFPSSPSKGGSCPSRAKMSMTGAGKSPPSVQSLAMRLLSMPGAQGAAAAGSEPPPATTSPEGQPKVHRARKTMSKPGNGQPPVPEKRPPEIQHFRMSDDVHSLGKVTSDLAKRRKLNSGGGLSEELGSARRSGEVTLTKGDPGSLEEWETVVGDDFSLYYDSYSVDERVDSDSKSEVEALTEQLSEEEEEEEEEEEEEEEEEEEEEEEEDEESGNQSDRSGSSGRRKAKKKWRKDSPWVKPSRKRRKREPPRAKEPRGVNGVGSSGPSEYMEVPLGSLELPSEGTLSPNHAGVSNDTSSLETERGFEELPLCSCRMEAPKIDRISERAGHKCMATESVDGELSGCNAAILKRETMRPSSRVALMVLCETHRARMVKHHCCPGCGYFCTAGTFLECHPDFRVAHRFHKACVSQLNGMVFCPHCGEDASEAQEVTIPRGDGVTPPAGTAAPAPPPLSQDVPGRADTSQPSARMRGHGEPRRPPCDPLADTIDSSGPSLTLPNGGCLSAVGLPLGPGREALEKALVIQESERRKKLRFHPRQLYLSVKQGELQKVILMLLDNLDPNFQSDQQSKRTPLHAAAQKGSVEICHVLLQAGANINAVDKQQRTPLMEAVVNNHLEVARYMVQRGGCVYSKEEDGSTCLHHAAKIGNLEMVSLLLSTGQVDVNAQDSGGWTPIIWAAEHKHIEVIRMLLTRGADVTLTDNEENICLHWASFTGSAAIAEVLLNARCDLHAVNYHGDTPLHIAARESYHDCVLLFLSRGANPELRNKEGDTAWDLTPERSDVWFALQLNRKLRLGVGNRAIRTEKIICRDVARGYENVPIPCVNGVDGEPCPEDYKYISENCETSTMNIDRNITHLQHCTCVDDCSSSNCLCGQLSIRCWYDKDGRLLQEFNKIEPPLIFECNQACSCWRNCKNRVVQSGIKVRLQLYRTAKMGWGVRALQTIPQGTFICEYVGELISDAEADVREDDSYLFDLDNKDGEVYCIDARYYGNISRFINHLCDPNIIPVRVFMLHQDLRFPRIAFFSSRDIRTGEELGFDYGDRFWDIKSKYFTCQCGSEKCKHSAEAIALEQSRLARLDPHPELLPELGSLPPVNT

SMILES | Potency | activity, negative = inhibition
O=C1NC(=S)N(c2ccc(F)cc2)C(=O)/C1=C\c1ccoc1 | active: 7.94 µM | 
COc1ccc(CNCCc2ccc3c(c2)OCO3)c(OC)c1OC | active: 8.91 µM | 
Cc1ccc(CN2CCN(C)CC2)c(C)c1 |  | inactive: 13.6% [at 12.7 µM]
COCCNP(=O)(c1ccccc1)c1nc2ccccc2s1 (stereo not given) |  | inactive: -0.0236% [at 12.7 µM]
CCCC[N+]12CCC(CC1)C(C(=O)c1cccs1)C2 (stereo not given) |  | inconclusive: -113% [inhibitor]
O=C(CN1C(=O)C2(OCCO2)c2ccccc21)c1ccc(F)cc1 | inconclusive: 89.1 µM [inhibitor, partial curve, poor fit] | 
COc1ccc(NC(c2ccccc2F)P(=O)(Oc2ccccc2)Oc2ccccc2)cc1 (stereo not given) | inconclusive: 39.8 µM [inhibitor, single point] | 
CCCc1[nH][nH]c(=O)c1C(c1ccc(Cl)cc1)C(C#N)C#N (stereo not given) | inconclusive: 25.1 µM [inhibitor, single point] | 
O=C1NC(=O)N(c2ccccc2)C(=O)/C1=C/c1coc2ccc(O)cc2c1=O |  | inactive: -114%
CCOc1ccc(CCNC(=O)c2cc3c(-c4cccc(OC)c4)nn(C)c3s2)cc1OCC | inconclusive: 7.94 µM [inhibitor, partial curve, poor fit] | 
CCOc1cc(C=C2C(=O)NC(=O)NC2=O)ccc1OCC(=O)N1CCOCC1 | active: 8.91 µM | 
O=c1[nH]c(=S)n(-c2ccccc2Cl)c(O)c1C=NCCN1CCNCC1 | inconclusive: 79.4 µM [inhibitor, single point] | 
C[N+]1([O-])[C@@H]2CC(OC(=O)[C@H](CO)c3ccccc3)C[C@H]1[C@@H]1O[C@@H]12 (stereo not given in full) | inconclusive: 31.6 µM [inhibitor, single point] | 
NC(CCCCCP(=O)(O)O)C(=O)O (stereo not given) | active: 5.97 µM | 
CN1CCc2nc3sc(C#N)c(N)c3c(-c3cccs3)c2C1 | inconclusive: 2.51 µM [inhibitor, partial curve, poor fit] | 
O=c1[nH]c(O)c(C=Nc2ccc(Cl)c(C(F)(F)F)c2)c(=O)[nH]1 | inconclusive: 89.1 µM [inhibitor, single point] | 
CC1=C(O)C(=O)[C@@H]2O[C@@H]2C1=O | inconclusive: 22.4 µM [inhibitor, single point] | 
Cc1cc(C=C2C(=O)NC(=O)NC2=O)c(C)n1-c1ccc2c(c1)OCO2 | inconclusive: 20 µM [inhibitor, single point] | 
CCOC(=O)N1CCC(NC(=O)CCc2nc(C3=CCN(C)CC3)no2)CC1 | inconclusive: 89.1 µM [inhibitor, single point] | 
CCN(CC)CCN=Cc1c(O)n(CCc2ccccc2)c(=O)[nH]c1=O | inconclusive: 0.708 µM [inhibitor, full curve, poor fit] | 
Nc1ccccc1N=Cc1c(O)n(CCC2=CCCCC2)c(=O)[nH]c1=O |  | inactive: 13.1% [at 102 µM]
COc1ccc(CN2CCNC(=O)C2CC(=O)N(C)Cc2ccncn2)c(OC)c1 (stereo not given) | inconclusive: 56.2 µM [inhibitor, partial curve, poor fit] | 
CCN(CC)c1ccc(C=C2C(=O)NC(=S)NC2=O)cc1 | active: 7.94 µM | 
CCC(=O)Oc1ccc2c(c1)CCC1C2CC[C@]2(C)C(OC(=O)CC)CCC12 (stereo not given in full) | inconclusive: 3.55 µM [inhibitor, partial curve, poor fit] | 

SMILES | Potency | activity, negative = inhibition
C=CCN1CC[C@]23c4c5ccc(O)c4O[C@H]2[C@@H](O)C=C[C@H]3[C@H]1C5 |  | inconclusive: -59.3% [inhibitor] [at 2.33 µM]
COc1ccc(C)cc1NC(=O)CN1CCN(CC(=O)Nc2ccccc2F)CC1 | active: 39.8 µM | 
CC1OC(C[N+](C)(C)C)CC1O (stereo not given) |  | inactive: 1.91%
CNC(C(=O)c1ccccc1)C(OC)c1ccccc1 (stereo not given) |  | inconclusive: -78.6% [inhibitor]
CC(=O)O[C@]1(C)C(=O)OC/C2=C/CN(C)CCC(OC(=O)[C@@](O)(C(C)O)C[C@H]1C)C2=O (stereo not given in full) | inconclusive: 1 µM [inhibitor, single point] | 
COC(=O)C1=C(c2ccc(Cl)c(C(F)(F)F)c2)C[C@@H]2CC[C@H]1N2C(=O)NCc1cc(C)oc1C(F)(F)F |  | inactive: -1.9% [at 2.33 µM]
Cc1cc(N2CCNCC2)nc2ccccc12 | inconclusive: 0.708 µM [inhibitor, full curve, poor fit] | 
CC(C)Oc1ccc(CNC(=O)Oc2ccccc2)cc1 | inconclusive: 28.2 µM [inhibitor, single point] | 
C[C@@H]1Cc2c(Cl)cc(C(=O)N[C@@H](Cc3ccccc3)C(=O)O)c(O)c2C(=O)O1 |  | inactive: 3.32%
CCOC(=O)c1ccc(NC(=O)Nc2cc3c(cc2N2CCCCC2)n(CC)c(=O)n3CC)cc1 | inconclusive: 14.1 µM [inhibitor, partial curve] | 
COc1ccccc1CCNCc1cccc(C(F)(F)F)c1 | active: 70.8 µM | 
Cc1cccc(N2C(=O)/C(=C/c3ccc(N4CCN(C)CC4)o3)C(=O)NC2=S)c1C | active: 44.7 µM | 
CCOc1ccccc1N=Cc1c(O)n(C)c(=O)n(C)c1=O | active: 50.1 µM | 
O=c1[nH]c(=O)n(Cc2ccco2)c(O)c1/C=N/N1CCCCC1 | active: 20 µM | 
Cc1nc(CCl)cc(=O)[nH]1 | inconclusive: 50.1 µM [inhibitor, partial curve, poor fit] | 
O=C1CN=C(c2ccccc2)c2cc(Cl)ccc2N1Cc1ccc(Cl)cc1 |  | inactive: -9.71%
Cc1ccc(/C=C2\C(=O)NC(=O)N(CCc3ccc(F)cc3)C2=O)s1 | inconclusive: 25.1 µM [inhibitor, partial curve, poor fit] | 
CCC1(OC(=O)CN)C(=O)OCc2c1cc1n(c2=O)Cc2cc3ccccc3nc2-1 (stereo not given) |  | inactive: -32.9% [at 12.7 µM]
CCN(CC)P(=O)(c1nccn1C)N(CC)CC | inconclusive: 44.7 µM [inhibitor, partial curve] | 
Cc1nn(Cc2ccccc2Cl)c(C)c1C(=O)NC1CCCc2ccccc21 (stereo not given) |  | inactive: 8.58%
Cc1ccsc1C(=O)C1CCCN(Cc2ccc(-n3cccn3)cc2)C1 (stereo not given) | inconclusive: 35.5 µM [inhibitor, partial curve, poor fit] | 
Cc1cccc(-n2c(-c3ccco3)nc3ccccc3c2=O)c1C | inconclusive: 79.4 µM [inhibitor, partial curve, poor fit] | 
O=C(O)c1cccc(N=Nc2c(O)[nH]c(=O)[nH]c2=O)c1 | inconclusive: 70.8 µM [inhibitor, partial curve] | 
CN(C)C(=O)Oc1ccnc2cc(Cl)ccc12 |  | inactive: 1.73% [at 102 µM]

SMILES | Potency | activity, negative = inhibition
CC(C)COc1ccc(Cc2c(O)[nH]c(=S)[nH]c2=O)cc1 |  | inactive: 21.9% [at 0.501 µM]
CC1CCCN(C(=O)CCl)C1 (stereo not given) | inconclusive: 28.2 µM [inhibitor, single point] | 
O=c1[nH]c(=O)n(Cc2ccc(F)cc2)c(O)c1C=NCCCO |  | inactive: 25.8%
O=C(NC(=C(Cl)Cl)P(=O)(c1ccccc1)c1ccccc1)c1ccccc1 |  | inactive: 7.23%
CCC(=O)Nc1cc(C(=O)O)ccc1S(=O)(=O)c1ccc(C)cc1 | active: 44.7 µM | 
C=CCOc1c(Cl)cc(CNc2ccc3[nH]c(=O)[nH]c3c2)cc1OC | inconclusive: 20 µM [inhibitor, partial curve, poor fit] | 
Cn1c(CCCC(=O)O)nc2cc(N(CCCl)CCCl)ccc21 | inconclusive: 8.91 µM [inhibitor, single point] | 
CC1(C)C(O)CC(O)[C@]2(C)C1CC(O)[C@]1(C)C2CC[C@@]2(C)C(c3ccoc3)CC3OC312 (stereo not given in full) |  | inactive: -13.6% [at 2.33 µM]
Cc1cc(Cl)ccc1OCCCC(=O)NCc1cccs1 | inconclusive: 8.91 µM [inhibitor, single point] | 
COc1ccccc1N1CCN(C2CCN(C(=O)c3cccs3)CC2)CC1 | active: 28.2 µM | 
CCOC(=O)Cn1c(C)[n+](C)c2cc(Cl)c(Cl)cc21 | active: 44.7 µM | 
Nc1ccccc1Nc1ccc([N+](=O)[O-])cc1[N+](=O)[O-] | active: 89.1 µM | 
COc1ccc(-n2c(/C=C/c3ccc(O)c(O)c3)nc3ccccc3c2=O)cc1 | active: 31.6 µM | 
COP(=O)(OC)C(NC(=O)/C=C/c1ccccc1)C(Cl)(Cl)Cl (stereo not given) | inconclusive: 44.7 µM [inhibitor, partial curve] | 
Cc1ccc(N2C(=O)NC(=O)/C(=C\c3ccc(N4CCOCC4)cc3)C2=O)cc1 | inconclusive: 25.1 µM [inhibitor, partial curve, poor fit] | 
CCOP(=O)(CC(C(C)=O)C(O)c1ccccc1)OCC (stereo not given) | inconclusive: 44.7 µM [inhibitor, partial curve, poor fit] | 
CCN1CCN(S(=O)(=O)c2cnc(Cl)c(Br)c2)CC1 | inconclusive: 79.4 µM [inhibitor, single point] | 
CC(C)n1c(=O)c(C=Nc2ccc(F)cc2)c(O)n(Cc2ccco2)c1=O |  | inactive: -7.48%
Cc1cc2ccccc2n1CCNC(=O)COc1ccccc1 | active: 50.1 µM | 
O=C(O)c1ccc(-n2c(O)c(/C=C3\C=Nc4ccccc43)c(=O)[nH]c2=O)cc1 | active: 44.7 µM | 
COc1cc2c(cc1O)CC[n+]1cc3c(OC)c(OC)ccc3cc1-2 | inconclusive: 89.1 µM [inhibitor, single point] | 
c1ccc(-c2ccc(C(c3ccccc3)n3ccnc3)cc2)cc1 (stereo not given) | inconclusive: 7.08 µM [inhibitor, full curve, poor fit] and inconclusive: 28.2 µM [inhibitor, single point] | 
